In the antibiotic and cytotoxicity screens of Wong et al. (2023):
This is one part of the list.

Assays:
[1] = tested on: HSkMC (human skeletal muscle cells); assay: cytotoxicity call (relative viability < 0.9); settings: 10 µM
[2] = tested on: HepG2; assay: cytotoxicity call (relative viability < 0.9); settings: 10 µM
[3] = tested on: S. aureus RN4220; assay: growth inhibition call (relative growth <= 0.2); settings: 50 µM

| Structure (SMILES) | cytotoxicity call [1] | cytotoxicity call [2] | growth inhibition call [3] |
| --- | --- | --- | --- |
| Cc1scc2c1N(C(=O)CN1CCN(C)CC1)c1ccccc1NC2=O.Cl | inactive | inactive | active |
| C[C@@H]1CN([C@H](C)CO)C(=O)c2cc(NC(=O)Nc3cccc4ccccc34)ccc2O[C@@H]1CN(C)C(=O)Nc1cccc2ccccc12 | active | inactive | inactive |
| OCC1OC(Oc2ccc(O)cc2)C(O)C(O)C1O (stereo not drawn) | inactive | inactive | inactive |
| COc1ccc(S(=O)(=O)N(C)C[C@@H]2OCCCC[C@@H](C)Oc3ccc(NC(=O)Nc4ccc(F)cc4)cc3C(=O)N([C@@H](C)CO)C[C@H]2C)cc1 | inactive | inactive | inactive |
| CC(=O)Nc1ccc(S(=O)(=O)CCO)cc1 | inactive | inactive | inactive |
| O=C(C[C@@H]1C[C@@H]2c3cc(NS(=O)(=O)c4ccc(F)cc4)ccc3O[C@@H]2[C@H](CO)O1)NC1CCCC1 | inactive | inactive | inactive |
| O=c1[nH]c(=S)nc2[nH][nH]cc1-2 | inactive | inactive | inactive |
| C[C@H](CO)N1C[C@H](C)[C@H](CN(C)Cc2ccccc2)OCCCC[C@H](C)Oc2ccc(NC(=O)Cc3ccccc3)cc2C1=O | inactive | inactive | inactive |
| C[C@@H]1CN([C@H](C)CO)C(=O)c2cc(NC(=O)CCN3CCOCC3)ccc2O[C@H]1CN(C)Cc1ccc(C(=O)O)cc1 | inactive | inactive | inactive |
| CO[C@H]1CN(C)C(=O)c2ccc(NS(C)(=O)=O)cc2OC[C@@H](C)N(C(=O)CN(C)C)C[C@@H]1C | inactive | inactive | inactive |
| COC1=CC(=O)c2ccccc2C1=O | inactive | inactive | inactive |
| C[C@H](CO)N1C[C@H](C)[C@@H](CN(C)Cc2ccc(Oc3ccccc3)cc2)Oc2ccc(NC(=O)Nc3ccc4c(c3)OCO4)cc2CC1=O | active | inactive | inactive |
| CN(C)c1nc2ncnc(N)c2[nH]1 | inactive | inactive | inactive |
| C[C@@H]1CN([C@H](C)CO)C(=O)c2cc(NS(C)(=O)=O)ccc2O[C@H]1CN(C)Cc1ccc2c(c1)OCO2 | inactive | inactive | inactive |
| Nc1ccc(C(=O)N(CCO)CCO)cc1 | inactive | inactive | inactive |
| C[C@H](CO)N1C[C@H](C)[C@H](CN(C)S(C)(=O)=O)OCCCC[C@H](C)Oc2ccc(NS(=O)(=O)c3ccc(F)cc3)cc2C1=O | inactive | inactive | inactive |
| C[C@@H]1CN([C@H](C)CO)C(=O)c2cc(NS(=O)(=O)c3ccc(Cl)cc3)ccc2O[C@@H](C)CCCCO[C@H]1CN(C)C(=O)Nc1ccc(C(F)(F)F)cc1 | active | active | inactive |
| Cc1noc(C)c1NC(=O)N(C)C[C@H]1OCCCC[C@@H](C)Oc2ccc(NS(=O)(=O)c3ccc(Cl)cc3)cc2C(=O)N([C@@H](C)CO)C[C@@H]1C | inactive | inactive | inactive |
| [N-]=[N+]=Nc1ccccc1[C@H]1OC(c2ccc(OCCCO)cc2)=N[C@@]1(CCS(=O)(=O)c1ccccc1)C(=O)NCc1ccccc1 | inactive | inactive | inactive |
| COCCOC(=O)N1C(=O)[C@@]2(c3cc(C#CC4(O)CCCCCC4)ccc31)[C@H](C(=O)N1CCN(c3ncccn3)CC1)[C@H]1C(=O)O[C@H](c3ccccc3)[C@H](c3ccccc3)N1[C@@H]2c1ccccc1OCCO | inactive | inactive | inactive |
| C[C@@H]1CN([C@H](C)CO)C(=O)c2cc(NC(=O)Nc3ccc(F)cc3)ccc2O[C@@H](C)CCCCO[C@@H]1CN(C)C(=O)Cc1ccccc1 | inactive | inactive | inactive |
| O=C(O[C@@H]1Cc2c(O)cc(O)cc2O[C@@H]1c1cc(O)c(O)c2c(=O)c(O)cc([C@H]3Oc4cc(O)cc(O)c4C[C@H]3O)c-2c1)c1cc(O)c(O)c(O)c1 | inactive | active | inactive |
| COc1ccc(-c2cnc3c(c2)C(=O)N([C@@H](C)CO)C[C@H](C)[C@@H](CN(C)C(=O)Cc2ccccn2)O3)cc1 | inactive | inactive | inactive |
| C[C@@H]1CN([C@@H](C)CO)C(=O)c2c(c3ccccc3n2C)-c2ccccc2CO[C@@H]1CN(C)C(=O)Nc1ccc(F)cc1 | inactive | inactive | inactive |
| C[C@H]1CCCCO[C@@H](CN(C)C(=O)Cc2ccccc2)[C@@H](C)CN([C@@H](C)CO)C(=O)c2cc(NS(=O)(=O)c3ccc(F)cc3)ccc2O1 | inactive | active | inactive |
| Cn1cnc(S(=O)(=O)N2C[C@H](O)COC[C@@H]3O[C@@H](CC(=O)NCc4cccc(F)c4)CC[C@H]32)c1 | inactive | inactive | inactive |
